Test results from publication PMC4336329 (PLoS ONE, 2015).
Among all 310,000 compounds or so, about 2,200 (0.71%) showed an effect of 50% or more. The effect is printed as a negative number. This is one part of the list.

molecular target: human ether-à-go-go-related gene (hERG) potassium channel (human, UniProt Q12809); experiment: primary screen, population patch clamp on CHO cells stably expressing hERG
Sequence (Q12809 whole entry, looked up): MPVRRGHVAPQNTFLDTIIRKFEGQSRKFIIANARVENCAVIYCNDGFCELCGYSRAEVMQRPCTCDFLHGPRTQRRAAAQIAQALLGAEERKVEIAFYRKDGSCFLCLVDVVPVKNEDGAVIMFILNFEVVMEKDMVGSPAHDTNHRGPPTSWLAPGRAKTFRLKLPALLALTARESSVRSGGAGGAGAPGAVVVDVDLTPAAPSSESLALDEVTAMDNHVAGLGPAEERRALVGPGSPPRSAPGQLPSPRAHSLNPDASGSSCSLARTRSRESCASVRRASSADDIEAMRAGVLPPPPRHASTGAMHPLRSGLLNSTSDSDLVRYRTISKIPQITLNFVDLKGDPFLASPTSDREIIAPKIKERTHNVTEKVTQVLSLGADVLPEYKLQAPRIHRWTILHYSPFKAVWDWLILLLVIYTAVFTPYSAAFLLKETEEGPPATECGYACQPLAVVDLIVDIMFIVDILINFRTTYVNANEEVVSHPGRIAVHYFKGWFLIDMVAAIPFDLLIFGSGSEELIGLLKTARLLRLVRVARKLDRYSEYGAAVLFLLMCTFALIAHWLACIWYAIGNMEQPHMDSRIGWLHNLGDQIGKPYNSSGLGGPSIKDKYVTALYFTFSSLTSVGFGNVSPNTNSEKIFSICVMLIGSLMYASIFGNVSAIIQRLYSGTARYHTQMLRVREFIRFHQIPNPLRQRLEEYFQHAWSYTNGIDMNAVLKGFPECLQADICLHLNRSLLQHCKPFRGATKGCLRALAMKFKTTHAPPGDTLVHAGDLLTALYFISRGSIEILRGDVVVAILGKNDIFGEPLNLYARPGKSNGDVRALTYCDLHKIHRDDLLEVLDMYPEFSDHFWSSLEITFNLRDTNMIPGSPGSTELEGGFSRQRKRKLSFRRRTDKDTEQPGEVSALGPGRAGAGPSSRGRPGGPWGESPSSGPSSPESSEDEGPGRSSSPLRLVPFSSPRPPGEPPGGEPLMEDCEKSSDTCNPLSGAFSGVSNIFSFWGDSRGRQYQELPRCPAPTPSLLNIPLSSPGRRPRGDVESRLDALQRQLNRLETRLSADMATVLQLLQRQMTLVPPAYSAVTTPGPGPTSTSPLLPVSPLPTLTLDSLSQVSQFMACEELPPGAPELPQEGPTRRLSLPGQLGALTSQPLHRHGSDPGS

Structure (SMILES)	hERG current change (%, negative = inhibition) at 1uM
CSc1ccc(C(c2c(C(=O)O)[nH]c3ccccc23)c2c(C(=O)O)[nH]c3ccccc23)cc1	12.6%
C=CCNc1nc(-c2cccs2)c(CC(=O)O)s1	-10.7%
Cc1[nH]c(=O)[nH]c(=O)c1S(=O)(=O)N1CCN(c2cccc(Cl)c2)CC1	5.81%
Cc1ccc(N2C(=O)C3C4C=CC(CNC(=S)Nc5ccc(Cl)cc5)(O4)C3C2=O)cc1 (stereo not shown)	4.56%
Cc1[nH]n(C(N)=S)c(=O)c1N=Nc1ccc(Cl)cc1Cl	7.32%
O=C(COc1ccc(S(=O)(=O)Nc2ccccc2)cc1)NCc1ccncc1	9.53%
O=[N+]([O-])c1cccc(/C=N/Nc2nc(NCc3ccccc3)nc(N3CCOCC3)n2)c1	14.7%
COC(=O)C1=C(c2ccc(-c3ccccc3)c(F)c2)C[C@@H]2CC[C@H]1N2C(=O)NCc1cc(C)oc1C(F)(F)F	-10.7%
CCC1(CC)NC(=O)N(CC(=O)OCC(=O)Nc2sccc2C#N)C1=O	10.1%
Cc1csc(=O)n1CC(=O)OCC(=O)c1ccc(Br)cc1	-4.33%
CC(=O)c1cccc(NC(=O)C(C)N(C)CC(=O)Nc2ccc(Cl)cc2)c1 (stereo not shown)	-1.89%
COc1cc(C2C(N3C(=O)c4ccccc4C3=O)C(=O)N2c2ccc(C)c(C)c2)cc(OC)c1OC (stereo not shown)	-0.347%
O=C(OCCN1C(=O)c2ccccc2C1=O)c1cc2ccccc2o1	15.7%
O=C(CSc1nc(C(F)(F)F)cc(=O)[nH]1)Nc1nccs1	13.1%
COc1ccccc1NC(=O)CN1CCN(CC(=O)Nc2cc(NC(C)=O)ccc2OC)CC1	-3.68%
Cc1cccc(NC(=O)CSc2nc(C)c(Cc3ccccc3)c(=O)[nH]2)c1	14.5%
O=C(CN1CCOCC1)Nc1cc([N+](=O)[O-])ccc1Cl	8.24%
CCOC(=O)C1(CC2CCCCO2)CCN(C(=O)Nc2ccc(SC)cc2)CC1 (stereo not shown)	10.2%
CCOCCCn1cc(C(=O)c2cc(Br)ccc2O)cc(C#N)c1=O	6.95%
CCOC(=O)CN1N=C(/C=C/c2ccc(OC)cc2)CCC1=O	15.1%
Cn1cccc1C(=O)NC(=O)CSc1nc2ccccc2s1	17%
COc1ccccc1OC(C)C(=O)N1CCN(Cc2ccc3c(c2)OCO3)CC1 (stereo not shown)	13.5%
CN(Cc1ccccc1)S(=O)(=O)c1nnc(NC(=O)c2ccccc2)s1	21%
CCOC(=O)C1C(=O)CC(C)(O)C(C(=O)OCC)C1c1ccc(Br)o1 (stereo not shown)	2.52%
COc1cccc(N2C(=O)C(O)=C(C(C)=O)C2c2ccc(OC)c(OC)c2)c1 (stereo not shown)	11.5%
Cc1noc(NS(=O)(=O)c2ccc(N/C=C\C(=O)c3ccccc3)cc2)c1C	13.9%
CN(C)/C=C/C(=O)c1ccc([N+](=O)[O-])c(CS(=O)(=O)c2ccccc2)c1	-4.39%
Cc1ccc(C2NC(=S)NC3=C2N2CCC3CC2)cc1 (stereo not shown)	11%

Structure (SMILES)	hERG current change (%, negative = inhibition) at 1uM
Cc1ccc(S(=O)(=O)[N-]c2c(C)n(C)n(-c3ccccc3)c2=O)cc1.[Na+]	16%
COc1ccc(C(C(=O)NC(C)(C)C)N(Cc2ccccc2)C(=O)CCC(=O)Nc2cc(C)on2)cc1 (stereo not shown)	19%
CCOc1ccc(C(=O)N/N=C/c2ccc(SC)cc2)cc1	10.5%
CC(=O)N1CCC(=NNc2ccc(S(N)(=O)=O)cc2[N+](=O)[O-])CC1	2.66%
CCn1cc(C(=O)O)c(=O)c2cc(F)c(N3CCN(S(=O)(=O)c4ccc5c(c4)OCCO5)CC3)cc21	10%
COCCNC(=O)COc1cccc(Oc2ccccc2)c1	2.41%
CCn1cc(Br)c(-c2nc3ccccc3c(=O)n2N)n1	1.49%
COc1ccc(CCNC(=O)c2ccccc2-c2ccccc2C(=O)O)cc1OC	11.5%
Cc1ccc(/C=C/C(=O)Nc2cccc3cccnc23)o1	-5.54%
CC[N+](C)(CC)CC(O)COCC1COc2ccccc2O1.[I-] (stereo not shown)	5.58%
Cc1nc2ccc(NC(=S)NC(C)C)cc2nc1C	3.13%
CCCS(=O)(=O)C(=C1NCCO1)S(=O)(=O)CCC	4.32%
CC(C)CC(NC(N)=O)C(=O)OCC(=O)N(Cc1ccccc1)Cc1ccccc1 (stereo not shown)	4.83%
COc1cc2c(cc1OC)C[N+](C)(C)CC2.[I-]	16.7%
O=C1C=C(c2ccccc2)OC(c2ccccc2)O1 (stereo not shown)	3.33%
CC(=O)c1c(C)[nH]c(C(=O)Nc2cccc3ccccc23)c1C	12%
COc1cc(-c2nc3cnccn3c2Nc2ccccc2)ccc1O	10.4%
COc1ccc2c(c1)Cc1sc(NC(=O)c3ccccc3)nc1-2	11.5%
Cc1nc(N2CCCCCC2)c2ccccc2n1.Cl	-7.29%
Cc1ccc(O)c(C2=NNC(c3ccc(Cl)cc3)C2)c1 (stereo not shown)	21.3%
CC(C)CC(=O)N1CCC(O)(CS(=O)(=O)Cc2ccccc2Cl)CC1	7.28%
N#Cc1c(C(F)(F)F)cc(-c2cccs2)nc1SCc1cccnc1	12.3%
Cc1cccc(OCCSc2nc3ccccc3n2CCC(=O)O)c1	8.15%
COc1ccccc1C(=O)N/C(=C\c1cn(S(=O)(=O)N(C)C)c2ccccc12)C(=O)N1CCCC1	11.4%
Cc1ccc(S(=O)(=O)N(CC(=O)Nc2ccc(Cl)c([N+](=O)[O-])c2)C2CCCCC2)cc1	7.11%
O=C(NC(=S)Nc1ccccc1N1CCCC1)c1ccc(F)cc1	11.8%
CCN(CC)C(=O)Cn1c(=O)oc2ccccc21	11.4%
